Measured values taken from PubChem BioAssay AID463173 (ICCB-Longwood Screening Facility, Harvard Medical School, 2010).
Screen size: about 52,000 compounds; about 1,700 (3.3%) were called active. Cut-off read from the data, not from the text of the source: active = survival mostly below about 52% (no sharp cut-off); inactive = mostly above about 56%. This is one part of the list.

tested on: Wild type; assay: S. aureus survival, RN4220 and DeltatarO strains – OD600, teichoic acid synthesis inhibitors, primary screen (AID 463173); conditions: S. aureus RN4220 wild type/DeltatarO growth, OD600, 18 h, stronger effect = lower value, screened at 18.75 µg/mL (by protocol)

Row | Compound | survival
1 | CCOC(=O)c1cc(-c2ccccc2)n(CCC(=O)Nc2ccc(Cl)c(C(F)(F)F)c2)c1C | inactive: 74%
2 | Cc1cccc(NS(=O)(=O)c2ccc(-n3cccn3)cc2)c1C | inactive: 65%
3 | Cc1nn(C)c2c1c(C(F)(F)F)cc(=O)n2Cc1cccc(Br)c1 | inactive: 101%
4 | COc1cc(OC)cc(C(=O)N2CCC(C(=O)NC(C)C)CC2)c1 | inactive: 112%
5 | O=C(Nc1cccc(Cl)c1)NC1(C(=O)Nc2ccc3c(c2)OCCO3)CCCCC1 | inactive: 99%
6 | Cn1cc(S(=O)(=O)N2CCCCCC2)cc1C(=O)NCc1ccccc1Cl | inactive: 121%
7 | CCOc1ccc(-n2c(-c3ccccc3)c(C)n3c4c(=O)n(C)c(=O)n(C)c4nc23)cc1 | inactive: 68%
8 | CCCNC(=O)C1CCN(c2ncnc3c2nc2n3CCCCC2)CC1 | inactive: 64%
9 | COc1ccc(NC(=O)c2coc(C)c2)cc1 | inactive: 102%
10 | CCCCCOc1ccc(/C=C/C(=O)Nc2sc(C(C)=O)c(C)c2C(=O)OCC)cc1OC | inactive: 76%
11 | CCc1nnc(NC(=O)c2nc(SCc3ccccc3C)ncc2Cl)s1 | inactive: 90%
12 | CCc1ccc(-n2c(=O)c3sc4ccccc4c3n(Cc3cccc(F)c3)c2=O)cc1 | inactive: 90%
13 | CCOC(=O)N1CCc2c(sc(NCc3ccc(OC)c(OC)c3OC)c2C(=O)Nc2ccc(OC)cc2OC)C1 | inactive: 67%
14 | CCCC(=O)NCC(c1ccc2c(c1)OCO2)N1CCN(c2ccccc2)CC1 (stereo not given) | inactive: 92%
15 | CCOC(=O)c1c(NC(=O)CC)sc(C(=O)OC)c1C | inactive: 110%
16 | Cc1oc(C)c2c(=O)cc(-c3ccc4c(c3)OCO4)cc(OC(=O)c3ccccc3Cl)c12 | inactive: 100%
17 | Cc1c(Cl)cccc1NC(=O)Cn1c(=O)nc(-c2ccccc2)c2ccccc21 | inactive: 65%
18 | CS(=O)(=O)N(CC(=O)O)C1CCCCC1 | inactive: 113%
19 | CCN1C(=O)/C(=C2/Sc3ccc(OC)cc3N2C)SC1=Nc1cccc(O)c1 | inactive: 110%
20 | CC1(CCC#N)N=C(SCCC#N)N(c2ccccc2)C1=O (stereo not given) | inactive: 91%
21 | CCN(CC)C(=O)c1sc(NC(=O)C(C)Sc2nc(-c3ccccc3)cc(C(F)(F)F)n2)c(C(=O)OC)c1C (stereo not given) | inactive: 118%
22 | CCC(=O)Nc1ccc(S(=O)(=O)NCc2ccc3c(c2)CCN3C(=O)c2ccc(C)cc2)cc1 | inactive: 110%
23 | COc1ccc(C2=CC(c3ccccc3F)n3ncc(C(=O)Nc4ccc(C)cc4)c3N2)cc1 (stereo not given) | inactive: 94%

Row | Compound | survival
24 | CCOC(=O)c1c(-c2ccccc2)csc1NC(=O)c1nc(S(=O)(=O)CC)ncc1Cl | active: 2%
25 | COC(=O)c1ccccc1NC(=O)CCC(=O)N1CCOc2ccccc21 | inactive: 81%
26 | CCc1c(C)nc(SCC(=O)N(C(C)C)C(C)C)[nH]c1=O | inactive: 116%
27 | COc1ccccc1Cn1ccn(Cc2c(F)cccc2Cl)c(=O)c1=O | inactive: 107%
28 | N#Cc1ccccc1CN1c2cccc3cccc(c23)S1(=O)=O | inactive: 107%
29 | CN(C)c1oc(/C=C/c2ccc(F)cc2)nc1C#N | inactive: 87%
30 | O=C(Nc1ccc(N2CCCC2)cc1)c1ccc(Br)o1 | inactive: 106%
31 | Cc1cccc(-c2c3c(=O)n(C)c(=O)n(C)c3cn2-c2cc(N)c(Cl)cc2Cl)c1 | inactive: 54%
32 | CSc1ccc(-c2nc3ncccn3c2Nc2ccc(C)c(C)c2)cc1 | inactive: 60%
33 | Nc1cc(=O)nc(SCC(=O)Nc2cccc(Cl)c2)n1CCc1ccccc1 | inactive: 94%
34 | CCN(c1ccccc1)c1nnc(NC(=O)Nc2cccc(Cl)c2C)s1 | inactive: 86%
35 | CC(=O)c1ccc(NC(=O)Nc2nnc(N3CCCC(C)C3)s2)cc1 (stereo not given) | inactive: 76%
36 | CCOC(=O)c1c(C)n(CCNC(C)=O)c2cc(Br)c(OC)cc12 | inactive: 104%
37 | COc1ccc(Cl)cc1Nc1ncnc2c1c(-c1ccccc1)cn2-c1ccccc1 | inactive: 152%
38 | CC(C)(C)OC(=O)N1CCC(c2c(C(=O)NCc3cccs3)cnn2-c2ccc(F)cc2F)CC1 | inactive: 81%
39 | Cc1nc2c(C(=O)NCCc3ccccc3)cnn2c(C)c1Cc1c(F)cccc1Cl | inactive: 71%
40 | Cc1c2cnn(CC(=O)NCc3ccc(F)cc3)c(=O)c2c(C)n1Cc1ccccc1F | inactive: 96%
41 | COCCN1CCc2nc(SCC(=O)Nc3ccc(Br)cc3)[nH]c(=O)c2C1 | inactive: 84%
42 | CCOCCCNC(=O)c1cc2c(-c3ccc(OC)c(OC)c3)nn(C)c2s1 | inactive: 81%
43 | CC(C)(C)NS(=O)(=O)c1ccc2oc3ccc(S(=O)(=O)NC(C)(C)C)cc3c2c1 | inactive: 104%
44 | Cc1ccc(-n2cccn2)cc1 | inactive: 113%
45 | COc1ccc(NC(=O)Nc2sc3nc4n(c(=O)c3c2C)CCC(C)CC4)cc1OC (stereo not given) | inactive: 89%
